Data from PMC4336329 (PLoS ONE, 2015).
The campaign covered roughly 310,000 compounds. About 2,200 (0.71%) showed an effect of 50% or more. Effects have a minus sign here. Some of the results follow.

target: human ether-à-go-go-related gene (hERG) potassium channel (human, UniProt Q12809); test: primary screen, population patch clamp on CHO cells stably expressing hERG
Sequence (Q12809 whole entry, looked up): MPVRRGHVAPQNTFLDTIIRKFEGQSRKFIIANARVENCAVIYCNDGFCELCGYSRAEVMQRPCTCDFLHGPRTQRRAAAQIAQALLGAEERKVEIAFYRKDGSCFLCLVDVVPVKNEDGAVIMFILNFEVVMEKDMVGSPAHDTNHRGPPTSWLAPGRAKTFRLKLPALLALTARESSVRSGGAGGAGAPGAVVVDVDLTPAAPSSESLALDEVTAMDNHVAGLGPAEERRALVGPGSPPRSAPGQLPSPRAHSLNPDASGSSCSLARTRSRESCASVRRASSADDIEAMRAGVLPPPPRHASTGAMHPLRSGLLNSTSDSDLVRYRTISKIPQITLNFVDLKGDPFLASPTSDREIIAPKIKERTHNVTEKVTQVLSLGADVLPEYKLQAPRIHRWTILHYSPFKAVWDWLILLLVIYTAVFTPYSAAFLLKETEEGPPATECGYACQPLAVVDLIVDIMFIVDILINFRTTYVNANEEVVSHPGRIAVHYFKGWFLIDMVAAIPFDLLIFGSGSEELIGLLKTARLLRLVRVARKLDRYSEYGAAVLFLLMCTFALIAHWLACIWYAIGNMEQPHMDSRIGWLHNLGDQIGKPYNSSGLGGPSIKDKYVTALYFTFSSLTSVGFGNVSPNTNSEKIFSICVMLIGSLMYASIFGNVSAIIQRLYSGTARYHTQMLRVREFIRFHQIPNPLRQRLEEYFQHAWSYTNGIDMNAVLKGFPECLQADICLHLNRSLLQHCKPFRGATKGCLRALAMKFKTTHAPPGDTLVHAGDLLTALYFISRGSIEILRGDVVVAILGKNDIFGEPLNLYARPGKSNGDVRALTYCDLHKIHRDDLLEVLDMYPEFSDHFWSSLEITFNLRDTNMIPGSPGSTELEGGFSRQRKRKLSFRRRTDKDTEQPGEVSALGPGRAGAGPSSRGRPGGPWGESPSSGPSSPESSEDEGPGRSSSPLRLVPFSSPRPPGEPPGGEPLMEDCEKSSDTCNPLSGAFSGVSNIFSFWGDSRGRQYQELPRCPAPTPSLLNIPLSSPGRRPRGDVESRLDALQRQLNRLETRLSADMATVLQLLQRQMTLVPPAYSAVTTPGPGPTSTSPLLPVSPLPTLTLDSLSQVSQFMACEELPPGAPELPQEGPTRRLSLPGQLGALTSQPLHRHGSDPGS

Row | SMILES | hERG current change (%, negative = inhibition) at 1uM [%]
1 | CC(C)CS(=O)(=O)C1=NSC2=NC(=O)/C(=C\c3ccc(OC(=O)c4ccco4)cc3)C(=N)N21 | 14.5
2 | CCOC(=O)c1sc(NC(=O)CCN2CCN(C)CC2)c(C(=O)OCC)c1C | -15.3
3 | O=C(Nc1cccc(-c2ccc(N3CCCCC3)nn2)c1)c1ccco1 | 9.27
4 | COc1ccc2c(c1)c(C)cc[n+]2Cc1ccccc1.[Cl-] | 14.6
5 | CCc1nccn1S(=O)(=O)c1ccccc1[N+](=O)[O-] | 2.99
6 | COc1ccc(C(=O)C2CCCN(Cc3ccc4nonc4c3)C2)cc1F (stereo not drawn) | 3.27
7 | CC1(C)Cc2c(c(-c3ccco3)nc3n[nH]c(N)c23)CO1 | 2.25
8 | COc1ccccc1C(O)(C(=O)NNc1cccc(C)c1)c1ccccc1OC | 8.03
9 | O=[N+]([O-])c1cccc(-c2cn3ccccc3n2)c1 | 15.2
10 | O=C(NC1CC1)C1CCN(C2CCN(C(=O)CSc3ccccc3)CC2)CC1 | 15.4
11 | COC(=O)C(Cc1ccccc1)NC(=O)C12CC3CC(CC(C3)C1)C2 (stereo not drawn) | 2.17
12 | CCC1(C)CC2(CCCN(CCC(O)(c3ccccc3)c3ccccc3)C2)CCO1.Cl (stereo not drawn) | 0.555
13 | COc1ccc(C(NC(=O)c2ccc(=O)[nH]c2)C(=O)Nc2ccc(C(C)C)cc2)cc1 (stereo not drawn) | 5.41
14 | Cc1cc(C(=O)OCC(=O)NCCc2ccccc2)c2ccccc2n1 | 13.1
15 | COc1cc(NC(=O)c2c(F)c(F)c(F)c(F)c2F)c(OC)cc1Cl | 0.502
16 | Cc1ccc(S(=O)(=O)N2CCCOC2CNC(=O)C(=O)NCc2ccncc2)cc1 (stereo not drawn) | 1.54
17 | CCCCCn1ccc(=O)c2c(C(F)(F)F)nccc21 | 14
18 | Cc1ccccc1C1CCCN(Cc2nc(C3CC3)no2)C1 (stereo not drawn) | 2.7
19 | CCC(=O)N(C)CCc1cc2c(c(OC)c1/C=N/Nc1ccc(C(=O)O)cc1)OCO2 | 3.79
20 | COC(=O)CNC(=O)C(Cc1c[nH]c2ccccc12)NC(=O)OC(C)(C)C (stereo not drawn) | 10.2
21 | COc1ccc2c(C=Nc3c(C)n(C)n(-c4ccccc4)c3=O)c(O)n(Cc3ccco3)c(=O)c2c1 | 1.49
22 | CCc1c(C)sc(NC(=O)c2cnn3cccnc23)c1C#N | 7.78

Row | SMILES | hERG current change (%, negative = inhibition) at 1uM [%]
23 | CN(C)c1cc2c(c(N(C)C)c1)C(=O)c1ccccc1C2=O | 13.4
24 | COc1ccc(OCCSc2nnc(-c3ccc(OC)cc3)n2N)cc1 | 7.59
25 | COc1ccc(Nc2nc(N)nc(CSC(=S)N3CCC(C)CC3)n2)cc1 | 11.2
26 | NC(CC(=O)O)c1cccc(OCc2ccccc2)c1 (stereo not drawn) | 8.55
27 | COc1cccc(/C=N/n2c(-c3n[nH]c4c3CCC4)n[nH]c2=S)c1OC | 3.21
28 | Cc1cc([N+](=O)[O-])nn1CCC(=O)Nc1nccs1 | 9.35
29 | COc1ccccc1NC(=O)CSc1nnnn1-c1ccc(C(=O)O)cc1 | 13.8
30 | c1cncc(CNC2=NCCCCC2)c1 | 1.17
31 | CCCCCC(=O)N1CCN(CCN=CC2=C(O)CC(c3ccc(OC)cc3)CC2=O)CC1 (stereo not drawn) | -54.5
32 | COc1ccc(C=C(c2nc3ccccc3s2)c2nc3ccccc3s2)cc1O | 8.63
33 | C/C(=N\NC(=O)c1cc(-c2ccccc2C)nc2ccccc12)c1cccnc1 | 12.1
34 | CCOC(=O)/C(C(=Nc1ccccc1)Nc1ccccc1)=C(\C)O | 13.4
35 | N#Cc1sc(C(N)=O)c(-c2ccccc2)c1-c1ccccc1 | 10.2
36 | Cc1ccc(NC(=O)CN(Cc2ccccc2)S(C)(=O)=O)cc1C | 2.69
37 | Cc1cc(C(=O)C(C)OC(=O)c2ccc(NC(=O)CC#N)cc2)c(C)n1-c1ccc(OC(F)F)cc1 (stereo not drawn) | 14
38 | CC1=CC(C)(C)N(C(=O)CSc2nncn2C)c2ccccc21 | 12
39 | CN(C)/C=C(\C#N)C(=O)N/N=C(\CC(=O)C(F)(F)F)c1ccco1 | 14.4
40 | O=C(NCCCCC(NC(=O)C1CCCCC1)C(=O)O)c1ccccc1 (stereo not drawn) | 9.07
41 | CCCNC(=O)c1nn2cc(Br)cnc2c1Br | -15.8
42 | CC(=O)Nc1sc(C)c(C)c1C(=O)OCC(=O)NCc1ccc(Cl)cc1 | 9.14
43 | CC1CCN(c2nc(-c3cccnc3)nc3scc(-c4ccccc4)c23)CC1 | 9.34
44 | O=C(NCCN1CCCC1)C1CCC(=O)N(CCCN2CCOCC2)C1 (stereo not drawn) | 9.24

Row | SMILES | hERG current change (%, negative = inhibition) at 1uM [%]
45 | O=C(O)c1cccc(NC(=O)c2ccc3c(c2)C(=O)N(c2cccc([N+](=O)[O-])c2)C3=O)c1 | 20.2
46 | COc1ccc(N2CCN(C(=O)CN(c3ccc(Br)cc3)S(C)(=O)=O)CC2)cc1 | 9.57
47 | O=C(COC(=O)/C=C/c1cccc(Br)c1)NC1CCCCC1 | 17.3
48 | CCCNC(=O)c1ccccc1C(=O)NC1(C(=O)NCCC)CCCC1 | 12.2
49 | O=C(NCCNC(=O)c1ccc(Br)o1)c1ccc(Br)o1 | 5.35
50 | Cc1ccccc1CNS(=O)(=O)c1csc(C(N)=O)c1 | 18.4
51 | CCOc1ccc(NS(=O)(=O)c2ccc3[nH]c(=O)c(=O)[nH]c3c2)cc1 | 10.4
52 | CCOP(=O)(O)c1ccccc1OCCOCCOc1ccccc1P(=O)(O)OCC | 8.2
53 | COc1ccccc1NS(=O)(=O)c1c(C)[nH]c(C)c1C(=O)N1CCCC1 | 19.8
54 | CCOC(=O)c1c(C=O)c(C)n(Cc2ccccc2)c1C | 7.38
55 | COc1cc(OC)c2ccc(=O)oc2c1C(CCN1CCCC(C)C1)c1ccc2c(c1)OCO2 (stereo not drawn) | -12.6
56 | CC(C)[N+]1(C)[C@@H]2CC[C@H]1CC(OC(=O)C(CO)c1ccccc1)C2.[Br-] (stereo partly drawn) | 13.3
57 | COCCOC(=O)C1=C(C)NC2=C(C(=O)CC(C)(C)C2)C1c1ccc(N(C)C)cc1 (stereo not drawn) | 15.2
58 | Cc1ccc(S(=O)(=O)N(C)CC(=O)OCC(=O)N2CCN(c3ccccc3)CC2)cc1 | 2.43
59 | Cc1noc(-c2ccccc2)c1NC(=O)Nc1ccccc1 | 8.39
60 | COc1ccc(OC)c(C2=Nn3c(nnc3-c3cccc(OC(C)C)c3)SC2)c1 | 6.26
61 | CC(=O)Nc1ccc(S(=O)(=O)Nc2ccc3ccccc3n2)cc1 | 7.35
62 | CC(C)N1C(=O)CC2(CC[N+](C)(CCOC(=O)C(O)(c3ccccc3)c3ccccc3)CC2)C1=O.[I-] (stereo not drawn) | 9.27
63 | CN(Cc1nc(-c2cnccn2)no1)CC1(c2ccccc2)CC1(C)C (stereo not drawn) | -2.5
64 | CC(C)CC(=O)Nc1ccc(C(=O)NN2C(=O)c3ccccc3C2=O)cc1 | 13.6
65 | CCONc1ncnc2nonc12 | 14.2
66 | COc1cccc(N(C(=O)c2snc(C(N)=O)c2N)C(C(=O)NCC2CCCO2)c2ccc(F)cc2)c1 (stereo not drawn) | 13.9

Row | SMILES | hERG current change (%, negative = inhibition) at 1uM [%]
67 | O=C(CCc1ccccc1)NNC(=S)NCc1ccc(Cl)cc1 | 21.8
68 | CCCC(=O)N1CC2(C)CN(C(=O)CCC)CC(CCC)(C1)C2=O | 11.7
69 | Cc1ccccc1Nc1nc2nonc2nc1N1CCOCC1 | 6.45
70 | CCOc1ccccc1N(CC(=O)NCC1CCCO1)C(=O)CCC(=O)Nc1cc(C)on1 (stereo not drawn) | 14.2
71 | NNC(=O)COc1cccc(Oc2ccccc2)c1 | 19
72 | CN(C(=O)CSC1=Nc2ccccc2C2=NC(c3ccccc3)C(=O)N12)C1CCCCC1 (stereo not drawn) | -18.2
73 | CN1CCN(c2ccc(NC(=O)c3ccc4ccccc4c3)cc2)CC1 | -14.6
74 | COc1ccc(/C=C/C(=O)N[C@H](C(=O)O)C(C)C)cc1 | 25.8
75 | COc1ccc(Cn2c(S(=O)(=O)CC(N)=O)nc3ccccc32)cc1[N+](=O)[O-] | 7.29
76 | Cn1cc(CN2CCC(C(=O)Nc3cccc(-c4cscn4)c3)CC2)cn1 | 13.5
77 | Cc1nn(CC(=O)N2CCOCC2)c(=O)c2ccccc12 | 0.212
78 | O=c1n(-c2ccccc2)c(=O)n2n1CCCC2 | 13.3
79 | CCC(C(=O)N1CCC2(CC1)OCCO2)n1c2ccccc2c2nc(=O)cc(C)n21 (stereo not drawn) | 12.6
80 | CCOC(=O)C1=C(COC(=O)CNS(=O)(=O)c2ccc(C)cc2)NC(=O)NC1C (stereo not drawn) | 16
81 | O=[N+]([O-])c1ccc(O)c(C=Nc2ccc3nc(-c4ccccc4)[nH]c3c2)c1 | 0.284
82 | O=[N+]([O-])c1ccc(N2CCOCC2)c2ccncc12 | -18.1
83 | O=C(COC(=O)c1nc(-c2ccccc2)n(-c2cccc(C(F)(F)F)c2)n1)NCc1cccs1 | 1.28
84 | N/C(=N\OC(=O)CCC1CCCCC1)c1ccccn1 | -2.93
85 | Cc1ccc(S(=O)(=O)NNC(=O)CCC(=O)Nc2ccccc2Cl)cc1 | 12.5
86 | Cc1ccc[n+](-c2nc3ccccc3nc2C(=C=[N-])C#N)c1 | 8.67
87 | C/C(=N\NC(=O)c1cccc(S(=O)(=O)N2CCOCC2)c1)c1ccc(O)cc1 | 6.57
